# Data from PubChem BioAssay AID1508642 (National Center for Advancing Translational Sciences (NCATS), 2021).
# The whole screen tested about 43,000 compounds, of which about 200 (0.47%) were called active. About 12% were inconclusive and are not listed. Calls follow the shape of the dose curve; as a rule, active = well fitted cell-killing curve with a large enough effect; inconclusive = small, poorly fitted or top-dose-only effect, or effect the other way; inactive = flat fitted curve, though single readings scatter. The list shows a part of the results.
# Assay: Cell viability qHTS assay in S16 Pmp22-F2sN cells; also: nearly all actives have a fitted effect of over 65% in size
# Settings: S16 Pmp22-F2sN Schwann cells (luciferase reporters placed in the Pmp22 gene) viability, CellTiter-Glo, 24 h; series mostly up to 57.5 µM; activity change, negative = cytotoxicity: at the top concentration
# Method in brief: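 Rat S16 Schwann reporter line, 24 h treatment with library compounds delivered at 23 nL per well. Cell viability by CellTiter-Glo luminescence.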
# % is scaled to controls: 0 for no effect and ±100 for the full control effect.
row,Compound,"activity change, negative = cytotoxicity"
1,O=C1CS(=O)(=O)C2(C(=O)N(Cc3ccc(F)cc3)c3ccccc32)N1c1cccc(C(F)(F)F)c1 (centres undefined),inactive: -3.05%
2,Cc1ccc2oc(C(=O)Nc3ccc(S(=O)(=O)Nc4onc(C)c4C)cc3)cc(=O)c2c1,inactive: 5.75%
3,Cc1ccc(NC(=O)CCCn2c3ccccc3c(=O)c3cc(C)ccc32)c(Br)c1,inactive: -2.91%
4,O=C1c2[nH]nc(-c3ccccc3)c2C(c2ccccc2)N1c1cccc(C(F)(F)F)c1 (centres undefined),inactive: 3.72%
5,O=C1SC(Nc2ccc(Cl)cc2)C(=O)N1Cc1ccccc1 (centres undefined),inactive: 8.5%
6,CCCCNC(=O)C1=CC(c2ccc3c(c2)OCO3)=NS(=O)(=O)N1C,inactive: 5.38%
7,O=C(CSc1ncc(S(=O)(=O)c2ccc(Cl)cc2)c(=O)[nH]1)Nc1ccc2c(c1)OCCO2,inactive: 4.42%
8,COc1cccc(C(=O)NCC(=O)OCc2cc(=O)n3nc(C)sc3n2)c1,inactive: -15.8%
9,CCCC(=O)Nc1nnc(SCc2cc(=O)c3ccc(C)cc3[nH]2)s1,inactive: -22.2%
10,COC(=O)c1ccc(Cn2nnc3sc4c(c3c2=O)CCC(C)C4)cc1 (centres undefined),inactive: -0.668%
11,CCc1ccccc1N(C)C(=O)Cn1cnc2sc(C)c(S(=O)(=O)N3CCN(c4ncccn4)CC3)c2c1=O,inactive: 16.6%
12,COc1ccc(NC(=O)Cn2c(=O)oc3cc(S(=O)(=O)N4CCC(C)CC4)ccc32)c(OC)c1,inactive: -15.1%
13,Cc1ccc(Cl)cc1NC(=O)C1CCC(CNS(=O)(=O)c2cccc3nsnc23)CC1 (centres undefined),inactive: 4.6%
14,CCc1ccc2c(c1)NC(c1cccs1)=NC(c1ccc(F)cc1)=N2,inactive: 19.9%
15,O=C(CCCN1C(=O)C(c2ccccc2)Oc2cccnc21)Nc1ccc(Br)cc1F (centres undefined),inactive: 2.61%
16,COc1ccc2c(CNCCc3cccs3)c(C(=O)O)n(Cc3ccccc3)c2c1,inactive: 7.93%
17,CCOc1ccc(CCNC(=O)c2cc3c(=O)[nH]c4ccc(C)cc4c3s2)cc1OCC,inactive: 6.97%
18,COc1ccc(-c2nc(SCC(=O)NCCc3ccc(OC)c(OC)c3)n[nH]2)cc1,inactive: 0.048%
19,O=C(NC1CCCc2ccccc21)c1ccc2c(c1)sc1nc(-c3ccc(F)cc3)cn12 (centres undefined),inactive: -1.66%
20,COc1cccc(N2CCN(C(=O)c3c(C)oc4ncnc(N5CCOCC5)c34)CC2)c1,inactive: 1.07%
21,Cc1c(C(=O)N(C)C)sc2c1c(=O)n(-c1ccc(Cl)c(Cl)c1)c(=O)n2CC(=O)Nc1cccc(C(F)(F)F)c1,inactive: 1.55%
22,CC(C)c1ccc(NC(=O)CN(C)S(=O)(=O)c2ccc3c(c2)c(=O)n(C)c(=O)n3C)cc1,inactive: -11.5%
23,CCn1c(=O)n(CC)c2cc(N3CCCCC3)c(NC(=O)Nc3ccccc3Cl)cc21,inactive: -5.41%
24,COc1cccc(Oc2nc3c(c(=O)n(Cc4ccccc4F)c(=O)n3C)n2C)c1,inactive: -8.84%

row,Compound,"activity change, negative = cytotoxicity"
1,CCOC(=O)Cc1ccc(NC(=O)NCc2ccc3c(c2)CCN3C(=O)CC)cc1,inactive: 20.2%
2,O=C(CCS(=O)(=O)c1cc(Br)cc2c1N(C(=O)C1CC1)CC2)Nc1ccc(Br)cc1F,inactive: -1.43%
3,CCOC(=O)c1oc2c(c1C)-c1nn(Cc3ccc(Cl)cc3)cc1CC2,inactive: -8.75%
4,Cc1noc(C)c1S(=O)(=O)N1CCC(C(=O)N2CCN(c3ccccc3)CC2)CC1,inactive: 9.88%
5,O=C(CSc1nc2c([nH]c3ccccc32)c(=O)n1-c1ccc(F)cc1)N1CCCCC1,inactive: 1.16%
6,CCc1ccc(OCC(=O)N(Cc2ccc(Cl)cc2)C2CCS(=O)(=O)C2)cc1 (centres undefined),inactive: -2.07%
7,COc1ccccc1NC(=O)Cn1nnc(C(=O)NCc2ccc3c(c2)OCO3)c1N,inactive: 0.269%
8,CCC(C)NC(=O)Cn1c(=O)cc(-c2ccccc2)c2c(C)nn(C)c21 (centres undefined),inactive: 3.33%
9,CCOc1ccc(C(CC(=O)O)N2Cc3ccccc3C2=O)cc1OC (centres undefined),inactive: 3.63%
10,COc1ccc(C2c3c(oc4ccc(F)cc4c3=O)C(=O)N2Cc2ccc3c(c2)OCO3)cc1 (centres undefined),inactive: -1.2%
11,Cc1ccc(N2CC(c3nc4ccccc4n3CCC3CCCCC3)CC2=O)cc1 (centres undefined),inactive: -0.0304%
12,COc1cccc(N2CCN(S(=O)(=O)c3ccc4[nH]c5c(c4c3)CCCC5)CC2)c1,inactive: -17%
13,O=C(Nc1ccccc1Br)C1CCCN(S(=O)(=O)c2cccc3nsnc23)C1 (centres undefined),inactive: -19.4%
14,CCOC(=O)c1cccc(Nc2c3c(nc4ccccc24)CCC3)c1,inactive: -29.2%
15,O=C1CC(c2ccccc2)Cc2[nH]c(=O)c(C(=O)Nc3cccc(F)c3)cc21 (centres undefined),inactive: 0.0593%
16,O=C(NCCS(=O)(=O)N1CCN(c2ccccc2)CC1)C(c1ccccc1)c1ccccc1,inactive: -0.661%
17,N#C/C(=C\c1ccccc1)c1nc(-c2cc3cc(Br)ccc3oc2=O)cs1,inactive: 2.85%
18,Cc1cccc(N(C)C(=O)c2cc(S(=O)(=O)N3CCCC3)cn2C)c1,inactive: -3.11%
19,CCc1ccc(CNCc2c(C(=O)O)n(Cc3cccc(F)c3)c3cc(OC)ccc23)cc1,inactive: -15%
20,COC(=O)c1ccccc1NC(=O)NCCc1c(C)nn(C)c1C,inactive: -2.87%
21,CC1CCN(C(=O)CSc2nnc(-c3ccccc3Cl)o2)CC1,inactive: 3.36%
22,COc1ccc(NC(=O)/C(C#N)=C/c2ccc(OCc3cc(=O)n4nc(C)sc4n3)cc2)cc1,inactive: 20%
23,CCN(C(=O)Cn1nc(Cc2cccnc2)c2ccccc2c1=O)c1ccccc1F,inactive: 26.3%
24,O=C(NCCc1csc(-c2ccc(Cl)cc2)n1)c1cccs1,inactive: -26.7%

row,Compound,"activity change, negative = cytotoxicity"
1,CCc1ccccc1NC(=O)Cn1c(-c2nonc2N)nc2ccccc21,inactive: 0.893%
2,COC(=O)c1c(NC(=O)CCCOc2ccc(C(C)(C)C)cc2)sc2c1CCC(C)C2 (centres undefined),inactive: -16.3%
3,COc1ccc(NC(=O)CCNS(=O)(=O)c2cccc3nsnc23)cc1,inactive: 0.514%
4,Cc1ccc2nc(-c3cc(NC(=O)c4ccc5c(c4)OCCO5)ccc3Cl)oc2c1,inactive: -0.347%
5,Cc1cccc(NC(=O)C2CCN(c3nnc(-n4c(C)ccc4C)s3)CC2)c1C,inactive: -8.06%
6,COc1ccc(-c2nnc(C3CCN(C(=O)c4ccccc4F)CC3)o2)cc1,inactive: -5.03%
7,Cc1ccc(S(=O)(=O)NCCc2cn3c(C)csc3n2)cc1,inactive: 4.99%
8,COc1ccc(OCCn2cc(C(=O)C3CCCCC3)c3ccccc32)cc1,inactive: 0.0651%
9,O=C(c1ccc2c(c1)CCN2S(=O)(=O)c1ccccc1)N1CCN(c2ccc(F)cc2)CC1,inactive: 5.15%
10,COc1cccc(N2CCN(C(=O)c3cnn(C(C)(C)C)c3C3CCN(C(=O)OC(C)(C)C)CC3)CC2)c1,inactive: 0.532%
11,CCc1cccc(NC(=O)Cn2c(=O)n(Cc3ccccc3)c(=O)c3c2c2cc(OC)ccc2n3C)c1,inactive: 25.9%
12,O=C(NCc1ccc(Cl)cc1)C(=O)Nc1ccc(Br)cc1,inactive: -0.94%
13,Cc1cc(C)c(Cn2c3ccccc3c3cnn(CC(=O)N4CCCCCC4)c(=O)c32)c(C)c1,inactive: 2.67%
14,Cc1cccc(C)c1OCC(=O)Nc1nc(-c2ccc(Br)cc2)ns1,inactive: 2.3%
15,Cn1cc(S(=O)(=O)c2ccccc2)c(=O)c2cc(F)c(N3CCN(c4ccccc4)CC3)cc21,inactive: -7.14%
16,Cc1cccc(-n2c(-c3ccccc3)cn3c4c(=O)[nH]c(=O)n(C)c4nc23)c1,inactive: 12.7%
17,Cc1ccc(-c2cc(C(F)(F)F)n3nc(C(=O)Nc4ccc(Cl)c(C(F)(F)F)c4)cc3n2)cc1,inactive: 1.36%
18,O=S1(=O)c2ccccc2N(Cc2ccccc2)c2ccccc21,inactive: -8.44%
19,CCN(CC)CCCNC(=O)C1CCN(S(=O)(=O)CC)CC1,inactive: 1.09%
20,COC(=O)c1cc(C)nc2c1c(=O)nc(SCc1ccccc1F)n2C1CC1,inactive: -2.27%
21,O=C(Cn1c(=O)n(-c2cccc(Cl)c2)c(=O)c2sc3ccccc3c21)N1CCCC1,inactive: 4.48%
22,CCOc1ccc(C(=O)Nc2c(C(=O)Nc3ccccc3F)oc3ccccc23)cc1OCC,inactive: 10.1%
23,CCn1c(=O)c2cc(C(=O)NCCc3cc(OC)ccc3OC)sc2c2ccccc21,inactive: 23.9%
24,CCCCN(CC)CCNC(=O)c1cc2c(=O)oc3ccc(C)cc3c2s1,inactive: -5.11%

row,Compound,"activity change, negative = cytotoxicity"
1,Cc1ccc(-n2c(C)nc3c(cnn3-c3ccccc3C)c2=O)cc1F,inactive: 20.9%
2,CCc1ccc2oc(-c3ccc(NC(=O)c4ccc(OC)c(Br)c4)cc3)nc2c1,inactive: 2.72%
3,Cc1cccc(Cn2cc(C(=O)Nc3ccc(F)c(C(F)(F)F)c3)ccc2=O)c1,inactive: -14.1%
4,O=C(NCc1cccc(F)c1)c1ccc(-n2cnc3cccnc32)cc1,inactive: -5.93%
5,COc1ccccc1CNC(=O)CCC1N=C2c3ccccc3N=C(SCc3cccc(Cl)c3)N2C1=O (centres undefined),inactive: -13.3%
6,COc1ccccc1CNC(=O)CCCc1nnc2n(CC(C)C)c(=O)c3sccc3n12,inactive: 18.6%
7,CC(C)N(C(=O)CSc1nc2ccc(Cl)cc2[nH]1)c1ccccc1,inactive: -7.82%
8,CCOc1ccc(OCC)c(NS(=O)(=O)c2cc(Br)cc3c2N(C(C)=O)C(C)C3)c1 (centres undefined),inactive: -0.535%
9,COc1ccc(-c2cc3nc(-c4ccc(C)cc4)cc(C(F)(F)F)n3n2)cc1,inactive: 3.15%
10,O=C(c1ccc(F)cc1)N1c2nc(-c3ccco3)nn2C2(CCCCC2)[C@@H]2CCCC[C@@H]21,inactive: 1.4%
11,CCC(=O)Nc1nnc(SCc2cc(=O)c3cc(C)ccc3[nH]2)s1,inactive: -24.6%
12,CCOc1cc(-c2nnc(SCC(=O)Nc3ccc(F)c(F)c3)nc2-c2ccc(OC)c(OCC)c2)ccc1OC,inactive: 18%
13,CC(=O)N1CCc2c(sc3c2c(=O)n(-c2ccccc2)c(=O)n3CC(=O)Nc2cccc(C)c2)C1,inactive: 12.8%
14,CCOc1ccc(CNS(=O)(=O)c2c(C(=O)N3CCC(C)CC3)c(C)n(C)c2C)cc1OC,inactive: -3.04%
15,Cc1c(C(=O)OC2CCCC2)[nH]c2c1C(=O)CC(c1ccc(Cl)cc1)C2 (centres undefined),inactive: -22%
16,O=C(CSc1nnc(-c2ccccc2)c(-c2ccccc2)n1)NC1CCCCC1,inactive: 7.46%
17,Cc1ccc(N2CC(NC(=O)Cc3cccs3)CC2=O)cc1C (centres undefined),inactive: 3.6%
18,CCOC(=O)N1CCc2c(sc(NCc3cccc(F)c3)c2C(=O)Nc2ccccc2OCC)C1,inactive: -1.04%
19,Cc1nc(N2C(=O)c3oc4ccccc4c(=O)c3C2c2cccc(OCCC(C)C)c2)sc1C (centres undefined),inactive: -9.26%
20,CCOc1ccc(/C=C(\C#N)c2nc3ccccc3c(=O)[nH]2)cc1OC,inactive: 7.73%
21,CCOc1ccccc1NC(=O)C1CCCN(S(=O)(=O)c2c(C)[nH]c(=O)[nH]c2=O)C1 (centres undefined),inactive: 14.4%
22,COC(=O)c1nnn(CC(=O)NC(=O)Nc2cccc(C)c2C)c1C(=O)OC,inactive: 5.15%
